The values that follow come from the supplement of paper PMC11417369.

This is one part of the list.

The test system of the test is PfSIP2 AP2 domain 1 (GST-tagged). The test is described as follows: gcPBM binding intensity (ln(normalized median fluorescence intensity)); higher = stronger DNA binding. An outline of the steps:
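Binding intensity is the highest Masliner-normalised natural-log median intensity over replicate spots in either probe orientation. To obtain it, GST-tagged P. falciparum DNA-binding domains made in E. coli were incubated for 1 h on an Agilent 4 × 180k array of primer-extended double-stranded 36-bp intergenic genomic probes plus negative controls. Detection used Alexa488 anti-GST antibody with scanning at 488 nm.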
On to “TATGAACACAGACACACACACAAAAAAAAAAAAAAA [CACACA_site7037]”, for which the “gcPBM binding intensity (ln)” value turned out to be 7.01.
As to “TATACCTTTGCGTGTGCATGCGCTTATATATATTTT [TGCATGCA_site152]”, the “gcPBM binding intensity (ln)” value stood at 7.69.
To “TTTATGTGTATGTTTACACACATAAAAAAATATATG [CACACA_site3039]” belongs 7.01.
To “TATTTTTAATATTTTGCATGCAGTATTTTATAAAAT [TGCATGCA_site250]” belongs 7.17; to “ACAATTCCCGTATGATGTACTTTTTTCCACTTTTTC [XGTACX_site1811]”, 7.1.
Then TTTTTGTTATTATGTGTGCACATATATATATATATA, with 9.79; and “TATGTTATTATTTGTACACACACATATATATCCTTG [CACACA_site5910]”, with 7.23; and “AACAAATATCCCAAAAGTACACATATAAAAAAAAAA [XGTACX_site4126]”, with 7.26.
Regarding “ATTATCTTATGTTATTTATTTGTCCCACATTTGTTA [TGCATGCA_negctrl_site402]”, the “gcPBM binding intensity (ln)” value is 7.07.
Take “CATACACCCAGACACACACACATATATATATATATA [CACACA_site634]”: the “gcPBM binding intensity (ln)” value is 9.39.
In the case of “TACCTAATATGTTATACACACATTAGAAGTACATAT [CACACA_site5375]”, the “gcPBM binding intensity (ln)” value stood at 7.
To “ATAAAAAAAAAAAAAAAATATATATATATATATATA [XGTACX_negctrl_site424]” belongs 9.64; to “TTATTTTTATTATTTTGTATATATATTTATAGAAAA [XGTACX_negctrl_site465]”, 7.24.
For “TGTAATAACGTTATAAAAAGTATAAAAAAAAAAAAA [CACACA_negctrl_site943]”, the “gcPBM binding intensity (ln)” value was found to be 6.85.
With “TATATACTTTTTAATCACACTTCTTTAAAAAAAGTA [CACACA_negctrl_site1380]”, the “gcPBM binding intensity (ln)” value worked out at 7.11.
To “TTTTAGGTCTGAATGTGTACTAAATAATATAAGTAT [XGTACX_site6554]” belongs 7.37.
“AATAAATAAATAAATTAATAAATTAATAAATTAATA [GTGCAC_negctrl_site37]”: the “gcPBM binding intensity (ln)” value came out at 6.6.
Turning to “CACACAAAGGAATATACACACATATTTATATTTATA [CACACA_site7841]”, the “gcPBM binding intensity (ln)” value was determined as 6.93.
Take “GTATATAATTTTTTATGTACTAAATTATATGTTTTT [XGTACX_site4907]”: the “gcPBM binding intensity (ln)” value was found to be 6.87.
In the case of “CAAAATTTTTATAAGTCACACATTATCTAAGCTTAT [CACACA_site5747]”, the “gcPBM binding intensity (ln)” value was found to be 6.69.
Then “TACAACATATTCAAATGTACAAATATAGGAATGAAA [XGTACX_site2730]”, with 7.08; and “AGCGTATTATACTGACGTACATTTTATGTAACTCCA [XGTACX_site2715]”, with 6.81; and “AACATAAAATGGATATGTACATAAAAATATATACTC [XGTACX_site7775]”, with 6.9.
To “TTATGTATTCATAACACATGCAAATAGGATCATATA [TGCATGCA_site731]” belongs 7.08; to “CGTTAGAGGGCTTTATCACACATGAAAAAAAAAAAA [CACACA_site5155]”, 6.94.
Then “CACACGCACAGACACACACACACATATAAATATGTA [CACACA_site6300]”, with 7.58; and “ATATGATTTCACAAGACACACACATACAAATTTATA [CACACA_site9296]”, with 7.2; and “AAAAAAAAAAAAAACACACACAAATTTAATATATAT [CACACA_site1695]”, with 7.21.
For the sequence “TATATATATAACAACACACACAGATCATAAAACTGC [CACACA_site2161]”, the “gcPBM binding intensity (ln)” value was determined as 8.05.
Then “TATATTTATTTTAACACACACATATATATATTATAT [CACACA_site4729]”, with 7.39; and “TCCCAAGGAGTAGGCACACATAAAATATTATACATA [CACACA_site717]”, with 6.87.
“AAAAAAAAAAAAAAAACACACACAAATTTAATATAT [CACACA_site8492]”: the “gcPBM binding intensity (ln)” value stood at 7.6.
To “AAAATTAAAGTAAGGACACACATATATAATACATAT [CACACA_site823]” belongs 7.05; to “TACACCAAAAAAAAACGTACAAAATCCCACCCAGAC [XGTACX_site4622]”, 7.5.
“TAGTATCAATCTTATACATGCATAAAATAATTATAA [TGCATGCA_site1052]”: the “gcPBM binding intensity (ln)” value amounted to 6.95.
To “GTGTTCTTGTTATACACACACATATTTATATTTATA [CACACA_site6615]” belongs 7.24.
To “TTTATTTATATAATTACACACATATATACGCAAATG [CACACA_site2794]” belongs 7.18; to “TTTTATTCATTAATTTGTACTTATCCTTTTGCTTAA [XGTACX_site1243]”, 7.12.
“TCATTAATTAAATCTTGTACATATTCATATATATAT [XGTACX_site2241]”: the “gcPBM binding intensity (ln)” value stood at 8.85.
As to “AAAGTATAGATGTATACACACACCAAACGTTAAAAA [CACACA_site3081]”, the “gcPBM binding intensity (ln)” value turned out to be 6.92.
To “TAAGCCAAGGGATAAATAAAATAACAAAATGAAATC [GTGCAC_negctrl_site601]” belongs 6.78; to “AAATATATTATAAATTGTACGTTTATATATATTATT [XGTACX_site5110]”, 6.89; to “TAAAGTTTTTTTTTAACACACACATAATAAAATAAA [CACACA_site8042]”, 7.28.
To “TAAAAAAATAAAAAAAAAAAATTATAAAATTATATA [GTGCAC_negctrl_site302]” belongs 6.55; to “GACACATATAAATATTAACACACATAATGAATTATA [CACACA_site8881]”, 7.26.
On to “ACATTATGCCATAAATGTACACATACATATACACAG [XGTACX_site1330]”, for which the “gcPBM binding intensity (ln)” value was 7.13.
Take “TAACTAAGGAATAATACACACAGAAATATATATTTA [CACACA_site344]”: the “gcPBM binding intensity (ln)” value amounted to 6.77.
Then “GATGATGTTACTTAAGTGCATATAAATTATATTTTA [GTGCAC_site9940]”, with 7.87; and “TCATATGTGAAACACACACACACACCCAAAAAAACA [CACACA_site3247]”, with 7.05; and “ATTATGTTATTATTTTGTACACATAAATAATACGTT [XGTACX_site816]”, with 7.24.
On to “TGTTTCTTATTTTTTTCACACACTAATCATTTCAAA [CACACA_site8695]”, for which the “gcPBM binding intensity (ln)” value was found to be 7.29.
Then “GAACAAAAATACTTATGTACACATTAGCAAGGAAAA [XGTACX_site5622]”, with 7.12.
Then “TATACGCATATATACACACACATATATATATATATA [CACACA_site3416]”, with 9.43; and “AAACAAAAAAGAAGCACACATATATATATATATATG [CACACA_site2456]”, with 7.54; and “ATCTGAAAAATTAATAGTACAATTAATAATTAAACC [XGTACX_site8523]”, with 7.16.
Regarding “TGTTAATTTCATTTTCTACACACCTATCCTTTTTTT [CACACA_site8157]”, the “gcPBM binding intensity (ln)” value was determined as 6.95.
